Measured values published in publication PMC5605996.
No constants are given. Whether binding was seen depends on the method and setting. In cells and extracts the contact can be indirect. Some binding calls cover weakened binding; strength is not graded here.

What follows are binders tested against GST fusion of the SET domain of Enhancer of zeste, GST-E(z)SET (Drosophila) (UniProt P42124) (assay: pull-down; 1 μg GST-E(z)SET or GST-TrxSET immobilised on GSH-agarose, mixed 2 h at 4 °C with pre-cleared reticulocyte lysate holding 35S-Asx or its deletion fragments; washes with 0.6 M NaCl, pH 7.9; SDS-PAGE and autoradiography, densitometry relative to GST; only the target purified).

Row | binding | Binder
1 | no binding | Asx COOH terminal deletion mutant A(1-1200), 35S-labelled, in vitro translated (domain or fragment, UniProt Q9V727 1-1200, 35S-methionine labelled) MKTITPDTTTTTSSQHQQLLIPQADQHHQPMLQQQSLLAAPPPTMIMEHVNLVDDDEKDPLALEQLEVSPSTKHTHSLRRHLPRIIVKPIPPEKKPMAPSEEAAVSTAPAPPTRLICSRRIQQQQQVKAAAAAAAAAAAAAAAAAAAAQAQATSSYPSAISPGSKAGTSQASTMREVLASIPGFSVKPRRRSNKKLTTAAQIEQTKDGKIDLETPDSILASTNLRALLNKQTFSLLPPLYQYNLIQLLPSVDREASELEQPSSSASGGSPSEAIRLSASCLNNEFFARACLEWRERLSEGEFTPENQLKLKTEAEREKNKLDPWKLKHFEPFWGEKNSRGKDKDKLESDCKNQKLSASIKSEPKPPATSQQKPLQQATCDNETELKFDLSTKCETTSAKTTVAVAVADKSSTFPPTGSQNNVLNEQQRRVLKRPSSSPSQRKQAPTTIATINLDDDLDELPSTSKDSKQPKMDEIVPNASGNVVAAPMVDVVDHSAVEMKIKDEQQHQRQHQPLINSTCDKIEPSECSKEMIVAMKQVDSKEDVDSIASAAAMPAIAAVTPHTPKPEALAPNPDVANQFVSYLQNVELAAETKAPLDNSNEADITTGTNSHDFVFSDTIDHAYFQEHQSTINHNFFTSSSSSNTATTAANKLEEHSDKPEDSPLPIASSISGSTPASSITSTSCTSSSSSSASMSSSCSSSNSGSTTTAPTTSSSAGAPTAPLTLAAAAETTLANVQAMLSTVAKLQQQQQELPVELNSNEMYQHVQHDWNFGDIKLSSSQSSGDQQRNLSHEAIDLMDVVQDADVIDDIMHNDVCHDVLGDEDEGDQEEDEDDEVVECMTEEQQLIDEDSEAVREIVDKLQQHQQQQNQQQHHQQLHIQDVVQLAQHSFMPQAHSEFGNDIGQEMLCDAVPMSAAEMEVSSTVITNSSNSNDSSNNISLCSSTNSLTINQMPHQASQQPQQNAQSNAQQQRQILVDSNGQIIGNFLLQQQRQQQQQQLLQQFTLQAAAAQQQQQQQQQHQQQQQQQQQATSSNSLGKTLPVALRNGTQQFLSPNLIAQQHQQQQQQQLEQHQQQATAQQKHQQIQQFALQQAQLHQRQLLAQAANNNLLQQQQQQQQNVALPTTQAKFIAKPLNIISMTRPANASPTTAATTANTASIPSAYANVVAVTGAQQQQSPPVPAPQQQTVQQQQLANHNSNM
2 | binds | Asx NH2 terminal residues 1-354, E(z)/Trx SET domain interaction site 1 (AsxETSI-1), 35S-labelled, in vitro translated (domain or fragment, UniProt Q9V727 1-354, 35S-methionine labelled) MKTITPDTTTTTSSQHQQLLIPQADQHHQPMLQQQSLLAAPPPTMIMEHVNLVDDDEKDPLALEQLEVSPSTKHTHSLRRHLPRIIVKPIPPEKKPMAPSEEAAVSTAPAPPTRLICSRRIQQQQQVKAAAAAAAAAAAAAAAAAAAAQAQATSSYPSAISPGSKAGTSQASTMREVLASIPGFSVKPRRRSNKKLTTAAQIEQTKDGKIDLETPDSILASTNLRALLNKQTFSLLPPLYQYNLIQLLPSVDREASELEQPSSSASGGSPSEAIRLSASCLNNEFFARACLEWRERLSEGEFTPENQLKLKTEAEREKNKLDPWKLKHFEPFWGEKNSRGKDKDKLESDCKNQK
3 | no binding | Asx deletion fragment A(1381-1501), 35S-labelled, in vitro translated (domain or fragment, UniProt Q9V727 1381-1501, 35S-methionine labelled) YVQRKPSPTTLIRHVFSPGPGGATATAQQLQMLQQHHQSTTSPVPVQNPQQPAPEQLIHQNGNGQYVLVHRANVGAADNQAPRASSAPPMHQNQFVTVQNPLHSINGIPMGGRGRPASVDT

The next lines start with the binder.

Row | Binder | binding
4 | Asx COOH terminal residues 1200-1501, E(z)/Trx SET domain interaction site 2 (AsxETSI-2), 35S-labelled, in vitro translated (domain or fragment, UniProt Q9V727 1200-1501, 35S-methionine labelled) MQQLPNVLTMKTLPPSGVPTTIAQQRLQPKMPTGKGRKATSNRLPPGAVNLERSYQICQAVIQNSPNRENLKAQLRPPAAILNQHQPTTTTAPAPINPVTLNVSTVAATPMSNITTATGSMAAAVAAAPPQNVLKQEELLVSGAVGAGALPAGLPPNVMGVGRPGVYKVIGPRMSGFPRKKYVQRKPSPTTLIRHVFSPGPGGATATAQQLQMLQQHHQSTTSPVPVQNPQQPAPEQLIHQNGNGQYVLVHRANVGAADNQAPRASSAPPMHQNQFVTVQNPLHSINGIPMGGRGRPASVDT | binds
5 | Asx deletion fragment A(1-200), 35S-labelled, in vitro translated (domain or fragment, UniProt Q9V727 1-200, 35S-methionine labelled) MKTITPDTTTTTSSQHQQLLIPQADQHHQPMLQQQSLLAAPPPTMIMEHVNLVDDDEKDPLALEQLEVSPSTKHTHSLRRHLPRIIVKPIPPEKKPMAPSEEAAVSTAPAPPTRLICSRRIQQQQQVKAAAAAAAAAAAAAAAAAAAAQAQATSSYPSAISPGSKAGTSQASTMREVLASIPGFSVKPRRRSNKKLTTAA | no binding
6 | Asx deletion fragment A(200-354), 35S-labelled, in vitro translated (domain or fragment, UniProt Q9V727 200-354, 35S-methionine labelled) AQIEQTKDGKIDLETPDSILASTNLRALLNKQTFSLLPPLYQYNLIQLLPSVDREASELEQPSSSASGGSPSEAIRLSASCLNNEFFARACLEWRERLSEGEFTPENQLKLKTEAEREKNKLDPWKLKHFEPFWGEKNSRGKDKDKLESDCKNQK | no binding
